Test results reported in the supplement of paper PMC4967469.
Lines with a small IC50 respond at low doses; a limit (>, <) means that the fit lies beyond the doses tested. For AUC the same curve is integrated over the 256-fold range of doses and scaled to a fraction: 1 means no effect, lower means more sensitive. Where the top dose is marked as inferred, it is not printed in the source and was worked back from the curve model.

Compound: CCc1nc(-c2cccc(C)c2)c(-c2ccnc(NC(=O)c3ccccc3)c2)s1 [TAK-715]
Assay: Viability of human cancer cell lines after 72 h of drug (GDSC screen)
Settings: top dose inferred
Experimental: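 Human cancer cell lines in 384-well plates, medium with 10% serum, drug for 72 h over a 256-fold dose range (nine 2-fold or five 4-fold steps up to the top dose). Adherent lines were fixed and stained with the nucleic acid dye Syto60, suspension lines read with resazurin; signal relative to control wells, capped at 0 and 100%. One two-parameter sigmoid per drug and line, fitted in a mixed model over all curves with the slope shared within a line.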

Row | Cell Line | AUC | IC50 [µM]
1 | SW626 (ovary, adherent, top dose 20 µM) | 0.915 | > 20
2 | SW684 (fibrosarcoma, adherent, top dose 20 µM) | 0.978 | > 20
3 | SW756 (cervix, adherent, top dose 20 µM) | 0.984 | > 20
4 | SW780 (bladder, adherent, top dose 20 µM) | 0.971 | > 20
5 | SW837 (large intestine, adherent, top dose 20 µM) | 0.946 | > 20
6 | SW872 (soft tissue, adherent, top dose 20 µM) | 0.966 | > 20
7 | SW900 (lung squamous cell carcinoma, adherent, top dose 20 µM) | 0.984 | > 20
8 | SW948 (large intestine, adherent, top dose 20 µM) | 0.939 | > 20
9 | SW954 (urogenital system, adherent, top dose 20 µM) | 0.94 | > 20
10 | SW962 (urogenital system, adherent, top dose 20 µM) | 0.981 | > 20
11 | SW982 (soft tissue, adherent, top dose 20 µM) | 0.985 | > 20
12 | SW1088 (glioma, adherent, top dose 20 µM) | 0.977 | > 20
13 | SW1116 (large intestine, adherent, top dose 20 µM) | 0.985 | > 20
14 | SW1271 (small cell lung carcinoma, adherent, top dose 20 µM) | 0.958 | > 20
15 | SW1417 (large intestine, adherent, top dose 20 µM) | 0.985 | > 20
16 | SW1463 (large intestine, adherent, top dose 20 µM) | 0.961 | > 20
17 | SW1573 (lung adenocarcinoma, adherent, top dose 20 µM) | 0.946 | > 20
18 | SW1710 (bladder, adherent, top dose 20 µM) | 0.948 | > 20
19 | SW1783 (glioma, adherent, top dose 20 µM) | 0.94 | > 20
20 | SW1990 (pancreas, adherent, top dose 20 µM) | 0.974 | > 20
21 | Saos-2 (osteosarcoma, adherent, top dose 20 µM) | 0.981 | > 20
22 | SiHa (cervix, adherent, top dose 20 µM) | 0.984 | > 20

Row | Cell Line | AUC | IC50 [µM]
23 | T47D (breast, adherent, top dose 20 µM) | 0.948 | > 20
24 | T84 (large intestine, adherent, top dose 20 µM) | 0.955 | > 20
25 | T98G (glioma, adherent, top dose 20 µM) | 0.981 | > 20
26 | T-24 (bladder, adherent, top dose 20 µM) | 0.955 | > 20
27 | T-T (oesophagus, adherent, top dose 20 µM) | 0.987 | > 20
28 | TALL-1 (T-cell lymphoblastic leukaemia, suspension, top dose 20 µM) | 0.941 | > 20
29 | TC-71 (Ewing sarcoma, adherent, top dose 20 µM) | 0.891 | 16.5
30 | TCCSUP (bladder, adherent, top dose 20 µM) | 0.979 | > 20
31 | TE-1 (oesophagus, adherent, top dose 20 µM) | 0.913 | > 20
32 | TE-4 (oesophagus, adherent, top dose 20 µM) | 0.873 | 19.1
33 | TE-5 (oesophagus, adherent, top dose 20 µM) | 0.939 | > 20
34 | TE-6 (oesophagus, adherent, top dose 20 µM) | 0.925 | > 20
35 | TE-8 (oesophagus, adherent, top dose 20 µM) | 0.918 | > 20
36 | TE-9 (oesophagus, adherent, top dose 20 µM) | 0.92 | > 20
37 | TE-10 (oesophagus, adherent, top dose 20 µM) | 0.945 | > 20
38 | TE-11 (oesophagus, adherent, top dose 20 µM) | 0.957 | > 20
39 | TE-12 (oesophagus, suspension, top dose 20 µM) | 0.793 | 11.4
40 | TE-15 (oesophagus, suspension, top dose 20 µM) | 0.772 | 8.72
41 | TE-441-T (rhabdomyosarcoma, adherent, top dose 20 µM) | 0.955 | > 20
42 | TGBC1TKB (biliary tract, adherent, top dose 20 µM) | 0.981 | > 20
43 | TGBC11TKB (stomach, adherent, top dose 20 µM) | 0.988 | > 20
44 | TGBC24TKB (biliary tract, adherent, top dose 20 µM) | 0.957 | > 20

Row | Cell Line | AUC | IC50 [µM]
45 | TGW (neuroblastoma, adherent, top dose 20 µM) | 0.928 | > 20
46 | THP-1 (acute myeloid leukaemia, suspension, top dose 20 µM) | 0.632 | 2.77
47 | TK10 (kidney, adherent, top dose 20 µM) | 0.925 | > 20
48 | TK (B-cell lymphoma, suspension, top dose 20 µM) | 0.912 | > 20
49 | TMK-1 (stomach, adherent, top dose 20 µM) | 0.982 | > 20
50 | TOV-21G (ovary, adherent, top dose 20 µM) | 0.966 | > 20
51 | TOV-112D (ovary, adherent, top dose 20 µM) | 0.759 | 7.03
52 | TT2609-C02 (thyroid, adherent, top dose 20 µM) | 0.968 | > 20
53 | TT (thyroid, adherent, top dose 20 µM) | 0.958 | > 20
54 | TUR (B-cell lymphoma, suspension, top dose 20 µM) | 0.911 | > 20
55 | TYK-nu (ovary, adherent, top dose 20 µM) | 0.985 | > 20
56 | U031 (kidney, adherent, top dose 20 µM) | 0.897 | > 20
57 | U251 (glioma, adherent, top dose 20 µM) | 0.91 | > 20
58 | U-2-OS (osteosarcoma, adherent, top dose 20 µM) | 0.951 | > 20
59 | U-87-MG (glioma, adherent, top dose 20 µM) | 0.978 | > 20
60 | U-118-MG (glioma, adherent, top dose 20 µM) | 0.983 | > 20
61 | U-698-M (B-cell leukaemia, suspension, top dose 20 µM) | 0.909 | > 20
62 | UACC-62 (melanoma, adherent, top dose 20 µM) | 0.985 | > 20
63 | UACC-257 (melanoma, adherent, top dose 20 µM) | 0.971 | > 20
64 | UACC-812 (breast, adherent, top dose 20 µM) | 0.976 | > 20
65 | UACC-893 (breast, adherent, top dose 20 µM) | 0.943 | > 20
66 | UM-UC-3 (bladder, adherent, top dose 20 µM) | 0.947 | > 20

Row | Cell Line | AUC | IC50 [µM]
67 | UMC-11 (lung carcinoid, adherent, top dose 20 µM) | 0.947 | > 20
68 | UWB1.289 (ovary, adherent, top dose 20 µM) | 0.948 | > 20
69 | VA-ES-BJ (soft tissue, adherent, top dose 20 µM) | 0.969 | > 20
70 | VAL (B-cell lymphoma, suspension, top dose 20 µM) | 0.81 | 10.5
71 | VCaP (prostate, adherent, top dose 20 µM) | 0.964 | > 20
72 | VM-CUB-1 (bladder, adherent, top dose 20 µM) | 0.988 | > 20
73 | VMRC-MELG (melanoma, adherent, top dose 20 µM) | 0.985 | > 20
74 | VMRC-RCW (kidney, adherent, top dose 20 µM) | 0.961 | > 20
75 | VMRC-RCZ (kidney, adherent, top dose 20 µM) | 0.91 | > 20
76 | WIL2-NS (lymphoid neoplasm, suspension, top dose 20 µM) | 0.656 | 3.08
77 | WM35 (melanoma, adherent, top dose 20 µM) | 0.972 | > 20
78 | WM278 (melanoma, adherent, top dose 20 µM) | 0.958 | > 20
79 | WM793B (melanoma, adherent, top dose 20 µM) | 0.921 | > 20
80 | WM1552C (melanoma, adherent, top dose 20 µM) | 0.952 | > 20
81 | WM-115 (melanoma, adherent, top dose 20 µM) | 0.965 | > 20
82 | WSU-DLCL2 (B-cell lymphoma, suspension, top dose 20 µM) | 0.893 | 16.7
83 | WSU-NHL (lymphoid neoplasm, suspension, top dose 20 µM) | 0.942 | > 20
84 | YAPC (pancreas, adherent, top dose 20 µM) | 0.977 | > 20
85 | YH-13 (glioma, adherent, top dose 20 µM) | 0.984 | > 20
